B1: Fc-4A22 (Fc fusion, human)
chain: [sequence of human IgG1 Fc not given]GAGAHTPGNSNKWKHLQENKKGRNRR
notes: domain: Fc (hinge-CH2-CH3); Disulfide-linked dimer; Biotinylated in the ELISA; also called 4A22 fused to Fc
B2: Fc-15A22 (Fc fusion, human)
chain: [sequence of human IgG1 Fc not given]GGGGSGGGGSGGGGSHTPGNSNKWKHLQENKKGRNRR
notes: domain: Fc (hinge-CH2-CH3); Disulfide-linked dimer; Biotinylated in the ELISA; also called 15A22 fused to Fc
B3: Fc-4F22 (Fc fusion, human)
chain: [sequence of human IgG1 Fc not given]GAGAREAPGAPRSPEPQDQKKPRNRR
notes: domain: Fc (hinge-CH2-CH3); Disulfide-linked dimer; Biotinylated in the ELISA; also called 4F22 fused to Fc
B4: Fc-15F22 (Fc fusion, human)
chain: [sequence of human IgG1 Fc not given]GGGGSGGGGSGGGGSREAPGAPRSPEPQDQKKPRNRR
notes: domain: Fc (hinge-CH2-CH3); Disulfide-linked dimer; also called 15F22 fused to Fc
B5: Fc-15F22p (Fc fusion, human)
chain: [sequence of human IgG1 Fc not given]GGGGSGGGGSGGGGSREAPGAPRSPEPQDQKKPRPRR
notes: domain: Fc (hinge-CH2-CH3); Disulfide-linked dimer; Biotinylated in the ELISA; also called Fc-F22p

Experiments:
[1] = biological target: T1, b1b2 domains (273-586) of neuropilin-1 (UniProt O14786 273-586); test: SPR Biacore 2000, NRP b1b2 on CM5 chip
T1 construct: range 273-586; Purified soluble domain; No tag described; also called NRP1-b1b2; NRP-1 b1b2
Procedure: (§1) Specifically, each b1b2 domain of neuropilin-1 and -2 was diluted with 10 mM Na-acetate buffer (pH 4.0), and fixed onto CM5 sensor chips (GE healthcare, USA) in about 1000 response units (RU). […] After bond and dissociation analysis, the regeneration of CM5 chip was performed by streaming a buffer (20 Mm NaOH, 1 M NaCl, pH 10.0) at a stream velocity 30 μl/min for 1 minute.

[2] = biological target: T2, b1b2 domains (275-595) of neuropilin-2 (UniProt O60462 275-595); test: SPR Biacore 2000, NRP b1b2 on CM5 chip
T2 construct: range 275-595; Purified soluble domain; also called NRP2-b1b2; NRP-2 b1b2
T2 sequence (looked up): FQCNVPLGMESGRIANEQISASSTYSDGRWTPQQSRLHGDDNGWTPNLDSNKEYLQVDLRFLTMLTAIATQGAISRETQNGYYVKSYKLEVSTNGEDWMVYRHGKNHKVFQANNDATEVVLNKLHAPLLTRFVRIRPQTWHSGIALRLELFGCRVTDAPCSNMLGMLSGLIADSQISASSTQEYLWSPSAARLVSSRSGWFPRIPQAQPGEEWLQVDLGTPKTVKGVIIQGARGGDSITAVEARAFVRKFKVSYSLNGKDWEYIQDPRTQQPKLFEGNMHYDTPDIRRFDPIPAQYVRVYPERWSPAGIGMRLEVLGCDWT
Procedure: as §1

T1 sequence (O14786 273-586 limits assumed, form in doubt): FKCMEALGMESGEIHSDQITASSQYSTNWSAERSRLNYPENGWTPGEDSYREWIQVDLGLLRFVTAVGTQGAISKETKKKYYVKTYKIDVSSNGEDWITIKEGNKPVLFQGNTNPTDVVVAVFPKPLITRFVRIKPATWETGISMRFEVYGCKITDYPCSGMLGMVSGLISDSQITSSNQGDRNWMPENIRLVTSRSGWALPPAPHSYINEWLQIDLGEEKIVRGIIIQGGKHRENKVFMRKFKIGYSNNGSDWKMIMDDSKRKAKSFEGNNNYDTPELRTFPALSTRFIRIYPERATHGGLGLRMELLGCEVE

Kd [1]	koff [1]	Kd [2]	koff [2]	kon [2]	kon [1]	Binder
18 µM	0.0193 s⁻¹	20.2 µM	0.123 s⁻¹	6090 M⁻¹ s⁻¹		B1
6.06 µM	0.0295 s⁻¹	9.8 µM	0.0387 s⁻¹	3940 M⁻¹ s⁻¹	4860 M⁻¹ s⁻¹	B2
10.3 µM	0.00225 s⁻¹	13 µM	0.00157 s⁻¹	121 M⁻¹ s⁻¹	218 M⁻¹ s⁻¹	B3
39.7 µM	0.0534 s⁻¹	12.4 µM	0.013 s⁻¹		1350 M⁻¹ s⁻¹	B4
0.0797 µM	0.00138 s⁻¹	0.0924 µM	0.00123 s⁻¹	13400 M⁻¹ s⁻¹	17300 M⁻¹ s⁻¹	B5

— patent US20160130315A1 (AJOU UNIVERSITY INDUSTRY ACADEMIC COOPERATION FOUNDATION, published 2016)
